Whole data set: some 81,000 sequences, median “one-hybrid fitness for binding parS DNA” near -0.17, cut for the highest 2% near 0.51. Some of the results follow.

B1: Caulobacter ParB omega fusion; a variant is named by its letters at X, in order, B8GW30 (parent)
chain: MESVVVGEPGMSEGRRGLGRGLSALLGEVDAAPAQAPGEQLGGSREAPIEILQRNPDQPRRTFREEDLEDLSNSIREKGVLQPILVRPSPDTAGEYQIVAGERAWRAAQRAGLKTVPIMVRELDDLAVLEIGIIENVQRADLNVLEEALSYKVLMEKFERTQENIAQTIGKSXSHVANXMRLLXLPDEVQSYLVSGELTAXHARAIAAAADPVALAKQIIEGGLSVRETEALARKAPNLSAGKSKGGRPPRVKDTDTQALESDLSSVLGLDVSIDHRGSTGTLTITYATLEQLDDLCNRLTRGI

In the assay the parent is B1. Kind of assay: one-hybrid fitness for binding parS DNA (scaled: cognate 1, non-cognate 0); higher = stronger binding. Conditions: with parS DNA site. Put shortly: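 Fitness is the rescaled log change in variant-to-wild-type read ratio, measured by Illumina sequencing of plasmids before and after bacterial one-hybrid selection. The scale puts cognate at 1 and non-cognate at 0. Selection of Caulobacter ParB libraries, four specificity codons randomised, took place in E. coli USO with a HIS3 reporter, site 19 bp from the promoter, over 48 hours at 37°C on M9-minus-histidine with 0.1 mM IPTG and 5 mM 3-AT.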
Take EFKC: the “one-hybrid fitness for binding parS DNA” value was not above 0.2.
With QITC the figure was not above 0.2; with WSFR, not above 0.2; with PIGY, not above 0.2.
With QMDF the figure was not above 0.2.
Then HQPV, with not above 0.2; and HTRY, with not above 0.2; and YALG, with not above 0.2.
Regarding MFIR, the “one-hybrid fitness for binding parS DNA” value was not above 0.2.
Then ADHL, with not above 0.2.
With QSPP the figure was not above 0.2.
With NIGS the figure was not above 0.2; with TVVY, not above 0.2.
Consider PNER, for which the “one-hybrid fitness for binding parS DNA” value is not above 0.2.
Consider YCLR, for which the “one-hybrid fitness for binding parS DNA” value was not above 0.2.
Then THVC, with not above 0.2; and AYWI, with not above 0.2.
Take SNHR: the “one-hybrid fitness for binding parS DNA” value is not above 0.2.
Then GQSG, with not above 0.2.
With RVHH the figure was 0.235.
With PMSN the figure was not above 0.2.
As for RTRK, the “one-hybrid fitness for binding parS DNA” value was not above 0.2.
Then APIG, with not above 0.2; and NVTG, with not above 0.2; and TCKQ, with not above 0.2.
With CNAC the figure was not above 0.2.
Regarding LMRV, the “one-hybrid fitness for binding parS DNA” value is not above 0.2.
With HIRC the figure was not above 0.2.
With HKCS the figure was not above 0.2.
Consider QAVS, for which the “one-hybrid fitness for binding parS DNA” value is not above 0.2.
For the variant GMSA, the “one-hybrid fitness for binding parS DNA” value is not above 0.2.
Then VQVT, with not above 0.2; and NSNI, with not above 0.2; and MSSF, with not above 0.2.
With DHSK the figure was 0.227; with TKQQ, not above 0.2; with SFAL, not above 0.2.
Then GSIP, with not above 0.2; and WETR, with not above 0.2.
Turning to ETSY, the “one-hybrid fitness for binding parS DNA” value is not above 0.2.
Turning to LRPG, the “one-hybrid fitness for binding parS DNA” value is not above 0.2.
With VGHR the figure was not above 0.2.
With LDQC the figure was not above 0.2; with GQHA, not above 0.2; with ATHV, not above 0.2.
Regarding RFKE, the “one-hybrid fitness for binding parS DNA” value is not above 0.2.
With DSRY the figure was not above 0.2.
Then RIKR, with not above 0.2.
With NQTL, the “one-hybrid fitness for binding parS DNA” value was not above 0.2.
With SSSH the figure was not above 0.2.
Then SGHC, with not above 0.2; and NLPV, with not above 0.2; and AVIS, with not above 0.2.
Then APLE, with not above 0.2.
With CPNC, the “one-hybrid fitness for binding parS DNA” value was not above 0.2.
With RFYD the figure was not above 0.2; with SADS, not above 0.2; with YAEM, not above 0.2.
With GSCL the figure was not above 0.2; with ACPT, not above 0.2; with YTYG, not above 0.2.
With KSRD the figure was not above 0.2; with RYMI, not above 0.2.
In the case of PDHT, the “one-hybrid fitness for binding parS DNA” value is not above 0.2.
With VIQS the figure was not above 0.2; with VDAG, not above 0.2.
Then QCEI, with not above 0.2.
Then WNLS, with not above 0.2; and QRNY, with not above 0.2; and SKQG, with not above 0.2.
For NTNR, the “one-hybrid fitness for binding parS DNA” value is not above 0.2.
Then IMTY, with not above 0.2; and LITA, with not above 0.2.
With LNMR the figure was not above 0.2; with TVPQ, not above 0.2.
Then GDRF, with not above 0.2.
As to IAWT, the “one-hybrid fitness for binding parS DNA” value was not above 0.2.
Then WKGG, with not above 0.2; and VYVG, with not above 0.2.
Then QDDT, with not above 0.2; and PPCQ, with not above 0.2; and PIRY, with not above 0.2.
Then KSKG, with not above 0.2.
Regarding WRNS, the “one-hybrid fitness for binding parS DNA” value is not above 0.2.
With TMCL the figure was not above 0.2.
Then KWQG, with not above 0.2; and QMNI, with not above 0.2.
Then RMLL, with not above 0.2; and RKVK, with not above 0.2.
For the variant VWYS, the “one-hybrid fitness for binding parS DNA” value is not above 0.2.
Then SRCC, with not above 0.2; and RKMM, with 0.283.
Then VNLS, with not above 0.2.
Then QVIK, with not above 0.2.
Consider FLRG, for which the “one-hybrid fitness for binding parS DNA” value was not above 0.2.
Regarding QGAF, the “one-hybrid fitness for binding parS DNA” value was not above 0.2.
Then LGSE, with not above 0.2.
With KKHC the figure was not above 0.2; with LKCG, not above 0.2; with QRND, not above 0.2.
Take MHMV: the “one-hybrid fitness for binding parS DNA” value was not above 0.2.
With WILC the figure was not above 0.2; with QIDS, not above 0.2.
With TRNE, the “one-hybrid fitness for binding parS DNA” value is not above 0.2.
With RQGY the figure was 0.462.
Then PLML, with not above 0.2; and SMPV, with not above 0.2; and FHAY, with not above 0.2.
With RFML the figure was not above 0.2; with EQYR, not above 0.2; with GRCC, not above 0.2.
Turning to RIGE, the “one-hybrid fitness for binding parS DNA” value was not above 0.2.
With YMTS the figure was not above 0.2; with HCCE, not above 0.2; with WPSW, not above 0.2.
With WYHF the figure was not above 0.2.
Then TELR, with not above 0.2; and ALSV, with not above 0.2.
Take EQAY: the “one-hybrid fitness for binding parS DNA” value was not above 0.2.
Consider NSKM, for which the “one-hybrid fitness for binding parS DNA” value is not above 0.2.
Then AKFM, with not above 0.2; and TLKS, with not above 0.2; and ASVS, with not above 0.2.
On to KEKT, for which the “one-hybrid fitness for binding parS DNA” value was not above 0.2.
With GHKS the figure was not above 0.2; with PYLN, not above 0.2; with GQWS, not above 0.2.
With GQAK the figure was not above 0.2; with GALD, not above 0.2.
With GPPT the figure was not above 0.2; with ITSM, not above 0.2.
Take VPNI: the “one-hybrid fitness for binding parS DNA” value was not above 0.2.
With MLLR the figure was not above 0.2.
With VCCC the figure was not above 0.2; with DMGP, not above 0.2.
Then NPTL, with not above 0.2; and TNPW, with not above 0.2; and PCYN, with not above 0.2.
In the case of RGTI, the “one-hybrid fitness for binding parS DNA” value was not above 0.2.
Then KDPC, with not above 0.2.
Turning to TVAY, the “one-hybrid fitness for binding parS DNA” value was not above 0.2.
With WAQS the figure was not above 0.2.
Then YEPL, with not above 0.2.
With HHII the figure was not above 0.2; with QRGD, not above 0.2; with GQPS, not above 0.2.
On to RQPS, for which the “one-hybrid fitness for binding parS DNA” value came to 0.535.
Consider QNFW, for which the “one-hybrid fitness for binding parS DNA” value was not above 0.2.
With QNKY the figure was not above 0.2.
For the variant TSSR, the “one-hybrid fitness for binding parS DNA” value was not above 0.2.
With DVAW the figure was not above 0.2; with TNKR, not above 0.2.
With TAPN the figure was not above 0.2.

Source of the values: a collection of fitness landscapes (doi:10.1016/j.celrep.2020.107928).
